Source: PubChem BioAssay AID1671193 (National Center for Advancing Translational Sciences (NCATS), 2021)
“And” between values parts separate entries of the source, which are not always exact repeats. Equal values may be shown once. Out of some 150,000 compounds screened, about 180 (0.12%) were called active. The inconclusive results got no clear call from the source; some entries with a clear call stand among them for comparison. Calls follow the shape of the dose curve; as a rule, active = well fitted cell-killing curve with a large enough effect; inconclusive = small, poorly fitted or top-dose-only effect, or effect the other way; inactive = flat fitted curve, though single readings scatter. A potency beside an inconclusive call is a rough fit, not a confirmed value.

test: GF-AFC viability counterscreen for inhibitors of alpha-synuclein gene (SNCA) expression; details: HEK-293-SNCA-luc viability, GF-AFC fluorescence, 24 h; activity change, negative = cytotoxicity: at 57.1 µM (top of the series) unless noted; also: nearly all actives have a fitted effect of over 30% in size;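 as to activity change, negative = cytotoxicity: 0% = DMSO-treated cells and -100% = medium-only wells without cells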
Method in brief: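 HEK-293-SNCA-luc cells (1500/well) plated 24 h, then exposed 24 h to a dilution series; GF-AFC added 30 min at 37C, fluorescence 405/540 nm; normalised to medium-only and DMSO wells, Hill fit.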
Potency is read from the fitted curve at half-maximal effect; tags tell the direction and shape of the fitted curve.

Compound	Potency	activity change, negative = cytotoxicity
C[C@@H]1CC[C@@]2(OC1)O[C@H]1C[C@H]3[C@@H]4CC=C5C[C@@H](O[C@@H]6O[C@H](CO)[C@@H](O[C@@H]7O[C@@H](C)[C@H](O)[C@@H](O)[C@@H]7O)[C@H](O)[C@@H]6O[C@@H]6O[C@@H](C)[C@H](O)[C@@H](O)[C@@H]6O)CC[C@]5(C)[C@@H]4CC[C@]3(C)[C@@H]1[C@H]2C	inconclusive: 42.9 µM [cytotoxic, single point]	–
N#Cc1ccc(CN2CC[C@@]3(CCCN(C(=O)Oc4ccccc4)C3)C2)cc1	inconclusive: 8.91 µM [cytotoxic, single point]	–
C[C@@H]1C[C@@H](O)[C@]2(O)O[C@@H]3C[C@@]4(C=O)C(CC[C@@H]5C4CC[C@]4(C)[C@@H](C6=CC(=O)OC6)CC[C@]54O)C[C@H]3O[C@@H]2O1 (some centres undefined)	inconclusive: 1.3 µM [cytotoxic, full curve, poor fit]	–
CCN(CC)C(=O)c1ccc(NC(=O)CCn2nc(-c3ccc(Cl)cc3)c3ccccc3c2=O)cc1	inconclusive: 31.6 µM [cytotoxic, partial curve, poor fit]	–
COc1ccc2c(c1)C1(CCN(C(=O)Nc3ccc4c(c3)OCCO4)C1)C(=O)N2C (centres undefined)	inactive	–
CCOC(=O)[C@H]1CN(S(=O)(=O)Cc2ccccc2)[C@]2(C)C(=O)N(CC3CC3)c3ccccc3[C@H]12	inconclusive: 11.2 µM [cytotoxic, partial curve, poor fit]	–
C=CCN(C)C[C@H]1CN2CC[C@H]1C[C@@H]2CNC(=O)c1ccc(N(C)C)cc1	inactive	–
CC1=C(O)C(=O)C=C2C1=CC=C1[C@@]2(C)CC[C@@]2(C)[C@@H]3C[C@](C)(C(=O)O)CC[C@]3(C)CC[C@]12C	active: 21.5 µM	–
CCN(CC)C(=O)c1ccc(NC(=O)CCn2nc(-c3ccc(C)cc3)c3ccccc3c2=O)cc1	inconclusive: 39.8 µM [cytotoxic, single point]	–
COc1cc2c(cc1OC1CCCC1)NC(=O)C21CCN(c2ccnc(C)n2)CC1	inactive	–
CCOc1ccc(CN(CCc2ccc3c(c2)OCO3)Cc2cccc(C)c2)cc1	inconclusive: 1.12 µM [rising, full curve, poor fit]	–
Cc1ccccc1-c1ccc2n(c1=O)C[C@H]1C[C@@H]2CN(Cc2cccs2)C1	inactive	–
c1cncc(C2=NOC3(CCN(C4CCCCC4)CC3)C2)c1	inconclusive: 14.1 µM [cytotoxic, partial curve, poor fit]	–
O=C(Nc1ccccc1)[C@H]1CN2CCC1C[C@@H]2Cn1cc(-c2ccccc2)nn1 (some centres undefined)	inconclusive: 11.2 µM [cytotoxic, partial curve, poor fit]	–
COCCn1c(C)cc(C(=O)NC2CCc3nnc(C4CC4)n3CC2)c1C (centres undefined)	inactive	–
C=C1C(=O)CC2OC2(C)CC2OC(=O)C(=C)C2C(O)C1OC(=O)/C(C)=C\C (centres undefined)	inconclusive: 18.5 µM [cytotoxic, single point]	–
Cc1c(C(=O)c2cccc3ccccc23)c2cccc3c2n1[C@H](CN1CCOCC1)CO3	inconclusive: 21.5 µM [cytotoxic, partial curve]	–
Cc1ncc2c(n1)C[C@@H]1CC[C@H]2N1C(=O)Nc1ccc(C)c(C)c1	inactive	–
CC[C@@]1(O)C(=O)OCc2c1cc1n(c2=O)Cc2cc3ccccc3nc2-1	inconclusive: 121 nM [cytotoxic, full curve, poor fit] and inconclusive: 316 nM [cytotoxic, full curve, poor fit]	–
CO/C1=C\C(C)=C\[C@@H](C)[C@@H](O)[C@@H](C)C/C(C)=C/C=C/[C@H](OC)[C@@H]([C@@H](C)[C@@H](O)[C@H](C)[C@@]2(O)C[C@@H](O)[C@H](C)[C@@H](C(C)C)O2)OC1=O	inconclusive: 0.0079 µM [cytotoxic, full curve]	–

Compound	Potency	activity change, negative = cytotoxicity
COc1cc2c(cc1OC1CCCC1)NC(=O)C21CCN(Cc2nccs2)CC1	inactive	–
CN1CCN(c2ccc([N+](=O)[O-])c3no[n+]([O-])c23)CC1	inconclusive: 26.7 µM [cytotoxic, partial curve, poor fit]	–
CCC(=O)N1[C@H]2CC[C@@H]1c1cnc(-c3ccc(F)cc3)nc1C2	inactive	–
CC(=O)Nc1ccc2n(c1=O)C[C@H]1C[C@@H]2CN(C(=O)c2ccccn2)C1	inactive	–
CCNC(=O)C[C@@H]1N=C(c2ccc(Cl)cc2)c2cc(OC)ccc2-n2c(C)nnc21	inconclusive: 42.9 µM [cytotoxic, single point] and inconclusive: 23.8 µM [cytotoxic, partial curve]	–
Cn1nc(C2CCCCC2)cc1[C@H]1CN2CC[C@H]1C[C@@H]2CNC(=O)COc1ccccc1	inactive	–
CC12CCC3C(CCC4(O)CC(O)CCC34C=O)C1(O)CCC2C1=CC(=O)OC1 (centres undefined)	inconclusive: 0.189 µM [cytotoxic, full curve]	–
CCC(C)/C=C(C)/C=C/C1=CC2=C(Cl)C(=O)C(C)(OC(C)=O)C(=O)C2=CO1 (centres undefined)	inconclusive: 23.3 µM [cytotoxic, partial curve, poor fit]	–
COc1cc(O)c2c(c1)CCC[C@@H](O)[C@H](O)C(=O)/C=C\C[C@H](C)OC2=O	inconclusive: 18.5 µM [cytotoxic, single point]	–
Cc1nc(-c2ccc(N(C)C)cc2)cc([C@H]2CN3CC[C@H]2C[C@@H]3CNC(=O)N2CCOCC2)n1	inactive	–
O=C(Nc1ccc2n(c1=O)C[C@H]1C[C@@H]2CN(Cc2ccc(F)cc2)C1)c1cccs1	inconclusive: 56.2 µM [cytotoxic, single point]	–
Cc1cc(C(=O)N2[C@H]3CC[C@@H]2c2cnc(-c4ccccc4)nc2C3)nn1C	inconclusive: 39.8 µM [cytotoxic, single point]	–
CC(C)CC(=O)N1CCC2(CC1)c1nccn1-c1ccccc1CN2C	inactive	–
O=C(Cc1cccc(Cl)c1)N1CCN(Cc2ccccc2-c2cccnc2)CC1	–	inactive: -1.6% [at 12.5 µM]
COc1ccc(-c2cc([C@H]3CN4CC[C@H]3C[C@@H]4CNC(=O)c3cccs3)n(C)n2)cc1	inactive	–
O=C(O)CCC(=O)N1C[C@@H]2C[C@H](C1)c1ccc(-c3ccc(Cl)cc3)c(=O)n1C2	inactive	–
CN1CCN(C(=O)Cc2cccn2-c2ccc(Cl)cc2)CC1	inactive	–
O=C(NCc1ccc(F)cc1)[C@H]1CN2CCC1C[C@@H]2Cn1cc(CO)nn1 (some centres undefined)	inactive	–
COCC1CN(C2CCC2)CC12CCN(Cc1cccnc1)CC2 (centres undefined)	inactive	–
CN1C[C@H](CNC(=O)OCc2ccccc2)C[C@@H]2c3cccc4c3c(cn4C)C[C@H]21	inconclusive: 3.98 µM [cytotoxic, single point]	–

Compound	Potency	activity change, negative = cytotoxicity
COc1ccccc1-c1cc([C@H]2CN3CC[C@H]2C[C@@H]3COC(=O)Nc2ccc(C(C)=O)cc2)n(C)n1	inactive	–
COc1ccc(C(=O)N2[C@H]3CC[C@@H]2c2cnc(-c4ccc(F)cc4)nc2C3)cc1F	inactive	–
COc1ccccc1-c1cc([C@H]2CN3CC[C@H]2C[C@@H]3COC(=O)Nc2ccc(C(C)(C)C)cc2)n(C)n1	inactive	–
Cc1ccc(CC(=O)N2CCN(C3CCN(Cc4cccnc4)C3=O)CC2)cc1 (centres undefined)	inactive	–
COc1ccc(N2CC3CCC(C2)N3CC(F)(F)F)cn1	inactive	–
COc1ccccc1CC(=O)N1CCN(C2CCN(C)C2=O)CC1 (centres undefined)	inconclusive: 1.26 µM [rising, full curve, poor fit]	–
O=C(NC[C@H]1C[C@@H]2CCN1C[C@@H]2CN1CCC(Cc2ccccc2)CC1)c1ccccc1	inconclusive: 56.2 µM [cytotoxic, single point]	–
CC(C)c1ccc(NC(=O)OC[C@H]2C[C@@H]3CCN2C[C@@H]3c2cc(C3CCCC3)nc(-c3ccncc3)n2)cc1	inconclusive: 39.8 µM [cytotoxic, single point]	–
CC(=O)c1cccc(NC(=O)OC[C@H]2C[C@@H]3CCN2C[C@@H]3c2cc(C3CCCC3)nc(-c3ccncc3)n2)c1	inconclusive: 28.2 µM [cytotoxic, single point]	–
CN(C)C(=O)[C@H]1CN2CCC1C[C@@H]2Cn1cc(-c2cccc(N)c2)nn1 (some centres undefined)	inactive	–
CC(=O)OC12C(O)C(C)C3(O)C4C=C(C)C(=O)C4CC(CO)=CC3C1C2(C)C (centres undefined)	inactive	–
C/C=C(/C)C(=O)O[C@H]1C(C)=C2[C@H]([C@@H]1OC(=O)CCCCCCC)[C@@](C)(OC(C)=O)C[C@H](OC(=O)CCC)[C@@]1(O)[C@H]2OC(=O)[C@@]1(C)O	inconclusive: 8.44 µM [cytotoxic, partial curve, poor fit] and inconclusive: 44.7 µM [cytotoxic, partial curve, poor fit]	–
CN(C)CCc1c[nH]c2ccccc12	–	inconclusive: 87.9% [at 87.6 µM]
COc1cc2c(cc1Oc1ccccc1)NC(=O)C21CCN(C(=O)c2cccc(O)c2)CC1	inconclusive: 20 µM [cytotoxic, partial curve, poor fit]	–
CSCC(=O)N1C[C@@H]2C[C@H](C1)c1ccc(-c3ccccc3CN(C)C)c(=O)n1C2	inactive	–
CN1CCNc2cc(NCc3ccccc3)ncc2C1	inactive	–
c1ccc2c(c1)OCC(C1=NCCN1)O2 (centres undefined)	inconclusive: 22.4 µM [cytotoxic, partial curve]	–
Cc1ncc2c(n1)C[C@@H]1CC[C@H]2N1C(=O)CC1CCCCC1	inconclusive: 39.8 µM [cytotoxic, single point]	–
Cn1nc(-c2ccc3ccccc3c2)cc1[C@H]1CN2CC[C@H]1C[C@@H]2CNC(=O)COc1ccccc1	inactive	–
